This passage reports binding signal results from PMC12136788.

The list shows a part of the results.

First the molecules themselves.
T1: UNK ZnF1-3 (human, UniProt Q9C0B0 31-174)
T1 sequence: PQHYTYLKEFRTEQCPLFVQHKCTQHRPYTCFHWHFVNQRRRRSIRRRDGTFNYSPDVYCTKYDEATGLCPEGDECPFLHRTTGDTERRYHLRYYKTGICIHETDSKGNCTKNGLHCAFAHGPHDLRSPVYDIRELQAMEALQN

B1: chr9:50470998:50470999:-_ENSMUSG00000032064_ENSMUST00000117646|mus_mus|motif|central (ssRNA)
RNA: GGGAGUUCUACAGUCCGACGAUCUAGGCAGUUAAAACAGGUUAUUACAUUGAUCAUCGGAAACUUCUGGCAUAACAGUCGGUGAAAACAUUGUAAAACAGAAUACAUGGUAAGAAUCUCUGAAAGCAGUGGUCACAAACACCCCAACAGAGGAUUGAGCAUCA
B2: chr2:198351390:198351391:-_ENSG00000144381_ENST00000345042|hu_hu|hu_hu_hu_mus_False|48_108 (ssRNA)
RNA: GGGAGUUCUACAGUCCGACGAUCUCAUUCUCACUCUCCACAGAAAGGCUGCUUCUGAACUCUCAUGUGGUGACACAGCGCUACAGUCCUGAUUUUAACAGAACAGUAGAGAUGCCUCAGUGAUUUAAGUUGAAAGCAGGACACCAACAGAGGAUUGAGCAUCA
B3: 56517131_56518048_387_CDS_ENSMUSG00000022223_ENSMUST00000111325|mouse|control|control (ssRNA)
RNA: GGGAGUUCUACAGUCCGACGAUCUUCCCAUUUGGUUACCAGGUUGGAGAAAAAGUCAAAAUUCCCUCCUGGGCUGUCUUCAUCAUACUCCUUAGUCAGGCUUGGCUGGUAGUAAGCUACACCUGUGACUAGAAUCCAAGCCUGCAACAGAGGAUUGAGCAUCA
B4: 93596713_93600395_1924_CDS_ENSG00000107854_ENST00000371627|human|control|control (ssRNA)
RNA: GGGAGUUCUACAGUCCGACGAUCCCCAGCUGCAAAAUGAAGUGGUGUAGACUGACGCCCUUCAAUGUCUCUGCAGUUGACACUCUGAACAGUACACAGUUUUUUUACAGUUUCGACAUCUCCAGCCUUUGCAGCUUCCAGCAACAACAGAGGAUUGAGCAUCA
B5: 25284677_25285055_493_3pUTR_ENSMUSG00000054793_ENSMUST00000068023|mouse|control|control (ssRNA)
RNA: GGGAGUUCUACAGUCCGACGAUCAUACCAGCGCAGGACCGCUGCGGGGCGCGACCGCGGAACCAGGCAGCUGAGUUCCACCUCGCCGCCCUCCACUGCUUGCUCUCGGACCUCCACCACAGGAUUCUCCGGAGCCACUAAGACCAACAGAGGAUUGAGCAUCA
B6: chr1:172123744:172123745:-_ENSMUSG00000026667_ENSMUST00000150821|mus_mus|FALSE|FALSE (ssRNA)
RNA: GGGAGUUCUACAGUCCGACGAUCCAGCUCGCUGAAACACAGUGCUCACACUUUAUAGGGAGGUGGAAAUAAAGUCCUCUGCUAUUCAGCAAGAAAAUAGACAUCUGAAAGACUGAUAAUGAAAAAAGAACAUCUUGGUACUAACAACAGAGGAUUGAGCAUCA
B7: chr20:44444512:44444513:+_ENSG00000175063_ENST00000356455|hu_mus|FALSE|FALSE (ssRNA)
RNA: GGGAGUUCUACAGUCCGACGAUCCAGGUAUUUCUUAAAUGCUGUGGGGUUUUUCCAGAGUUCCGCAGCGUGUGUGUUCAAAGGGCUAUCGAUGUUGGGUUCUCCUAGCAGGCUCUGGAUAGAGAGCAAGAUAGUCCUGACAUCCAACAGAGGAUUGAGCAUCA
B8: chr7:65705475:65705476:+_ENSG00000169902_ENST00000304842|hu_hu|hu_hu_hu_mus_True|18_98 (ssRNA)
RNA: GGGAGUUCUACAGUCCGACGAUCUCUAUUCGGUGAUGGCAUUCCAUGGCAUGCUGGCCCAGGUAAAACACGGUCACAGAACUAAUCACCAGACACGCCAAGAGUAAGUUCUGCUUCAGCUUUCCAACCAUCUUGAUGUGGUUACAACAGAGGAUUGAGCAUCA
B9: chr2:130369808:130369809:+_ENSMUSG00000027303_ENSMUST00000028769|mus_mus|FALSE|FALSE (ssRNA)
RNA: GGGAGUUCUACAGUCCGACGAUCGUUGGCUGGAAGGUUUCCCGUGCGCAUCUUGUCAUUCUGGAUUUUGAUUGAAGUUAAUUUCUUAAACUCCUCCUCUAACCCGUUGUUGCUCGUCCCUGGGAUCUUGUUAUAAAUUUUUUGCAACAGAGGAUUGAGCAUCA
B10: chr4:123032474:123032475:-_ENSMUSG00000028649_ENSMUST00000154824|mus_mus|motif|central (ssRNA)
RNA: GGGAGUUCUACAGUCCGACGAUCUGACCGGAAUGGAGUCAUCCCCUGAGAUGCCCCUUCUGGCAGGAUGAAUUUCUCUCGGAGUUCGGUGUUAGUUCUGCCUCGUGCUCGGCAGGGGUCAUUUUUCACUAGAAACUCGUCCAGCAACAGAGGAUUGAGCAUCA
B11: chr10:34018390:34018391:+_ENSMUSG00000039485_ENSMUST00000047935|mus_mus|motif|central (ssRNA)
RNA: GGGAGUUCUACAGUCCGACGAUCGCCCAUCAGAUAGUAUUGUAGGGGAUUGGACCACAGCUCCCCUUUGAUAAUUUCAGCGGUUCUGUCGAAUUCUAGGAGGCUGUGGUCUGAGAACCAGUUGAAGAAACUGGGAAUCGUGUUCAACAGAGGAUUGAGCAUCA
B12: chr17:16285243:16285244:+_ENSG00000170315_ENST00000535788|hu_mus|FALSE|FALSE (ssRNA)
RNA: GGGAGUUCUACAGUCCGACGAUCUCACGUUCUCGAUGGUGUCACUGGGCUCCACCUCUAGGGUGAUGGUCUUGCCGGUCAGGGUCUUCACGAAGAUCUGCAUUUUGACCUGUUAACAAAUGUGAUGAAAGCACAAACCGCCCACAACAGAGGAUUGAGCAUCA
B13: 97313816_97328786_801_CDS_ENSG00000139350_ENST00000266742|human|control|control (ssRNA)
RNA: GGGAGUUCUACAGUCCGACGAUCCUUAAACAAGGAGUACUUCAAGUGCCGAACAGACUGGUUACUACCAUGGCCAAAAGGAGUACUAGAUAAAUUAGUGGUUACACUGUGUAAAAUAAUUUCACCACUAAGAGAUCCAGAAGCCAACAGAGGAUUGAGCAUCA
B14: chr17:49118984:49118985:-_ENSG00000008294_ENST00000510283|hu_hu|FALSE|FALSE (ssRNA)
RNA: GGGAGUUCUACAGUCCGACGAUCUCCUUUCUGAGCAUCAGGUGUAAGCAAUCCAUCUCCAGCAGGUAAUGGGAAAAUUCCUAAUGAUAUAGGGCGUUCUUUUCUGAGUAUCCUUGGUAGGUUCUGCGUCAGAGCUGGCACACCCAACAGAGGAUUGAGCAUCA

This assay has as its target T1, UNK ZnF1-3. The assay can be described thus: nsRBNS (natural sequence RNA bind-n-seq); RBNS binding buffer (assumed for nsRBNS): 25 mM Tris pH 7.5, 150 mM KCl, 3 mM MgCl2, 0.01% Triton X-100, 500 ug/ml BSA, 20 U/ml SUPERase-In, 4 C; UNK is unkempt and MSI1 is Musashi-1; names of the RNAs are library labels; protein concentration not given here; high values mean tight binding.
The molecule B1 gave a binding signal of 1.3 enrichment R.

The molecule B2 had a binding signal of 1.05 enrichment R.

B3 yielded a binding signal of 0.754 enrichment R.

The molecule B4 had a binding signal of 0.635 enrichment R.

On to B5, for which the binding signal stood at 1.14 enrichment R.

The molecule B6 had a binding signal of 1.5 enrichment R.

B7 displayed a binding signal of 0.494 enrichment R.

The molecule B8 yielded a binding signal of 0.511 enrichment R.

Turning to B9, the binding signal was found to be 0.354 enrichment R.

Regarding B10, the binding signal came out at 0.673 enrichment R.

B11: the binding signal was 0.819 enrichment R.

B12 yielded a binding signal of 0.835 enrichment R.

B13 registered a binding signal of 1.43 enrichment R.

Regarding B14, the binding signal came to 1.42 enrichment R.
